# From the supplement of paper PMC8728848
# The list shows a part of the results.
# Assays:
# Assay in all cases: glycan array binding signal (z-score within array); higher = stronger binding
# Settings in all cases: glycan notation: IUPAC condensed, linker removed
# [1] = biological target: Gal(b1-4)GlcNAc(b1-3)Gal(b1-4)GlcNAc(b1-2)Man(a1-3)[Gal(b1-4)GlcNAc(b1-3)Gal(b1-4)GlcNAc(b1-2)Man(a1-6)]Man(b1-4)GlcNAc(b1-4)[Fuc(a1-6)]GlcNAc
# In short: (§1)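 Negative Z-scores can be read as non-binding. The Z-score is calculated within each array and then averaged across arrays of one protein sequence at different concentrations or buffers and across linkers. Arrays, 3228 in all, were curated from the Consortium for Functional Glycomics database and kept only where the protein sequence was available.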
# [2] = biological target: Gal(b1-4)GlcNAc(b1-3)Gal(b1-4)GlcNAc(b1-2)[Gal(b1-4)GlcNAc(b1-3)Gal(b1-4)GlcNAc(b1-6)]Man(a1-6)[Gal(b1-4)GlcNAc(b1-3)Gal(b1-4)GlcNAc(b1-2)Man(a1-3)]Man(b1-4)GlcNAc(b1-4)GlcNAc
# In short: as §1
# [3] = biological target: Gal(b1-4)GlcNAc(b1-3)Gal(b1-4)GlcNAc(b1-2)[Gal(b1-4)GlcNAc(b1-3)Gal(b1-4)GlcNAc(b1-6)]Man(a1-6)[Gal(b1-4)GlcNAc(b1-3)Gal(b1-4)GlcNAc(b1-2)Man(a1-3)]Man(b1-4)GlcNAc(b1-4)[Fuc(a1-6)]GlcNAc
# In short: as §1
# [4] = biological target: Gal(b1-4)GlcNAc(b1-3)Gal(b1-4)GlcNAc(b1-3)Gal(b1-4)GlcNAc
# In short: as §1
# [5] = biological target: Gal(b1-4)GlcNAc(b1-3)Gal(b1-4)GlcNAc(b1-3)Gal(b1-4)GlcNAc(b1-2)Man(a1-3)[Gal(b1-4)GlcNAc(b1-3)Gal(b1-4)GlcNAc(b1-3)Gal(b1-4)GlcNAc(b1-2)Man(a1-6)]Man(b1-4)GlcNAc(b1-4)GlcNAc
# In short: as §1
# [6] = biological target: Gal(b1-4)GlcNAc(b1-3)Gal(b1-4)GlcNAc(b1-3)Gal(b1-4)GlcNAc(b1-2)Man(a1-3)[Gal(b1-4)GlcNAc(b1-3)Gal(b1-4)GlcNAc(b1-3)Gal(b1-4)GlcNAc(b1-2)Man(a1-6)]Man(b1-4)GlcNAc(b1-4)[Fuc(a1-6)]GlcNAc
# In short: as §1
# [7] = biological target: Gal(b1-4)GlcNAc(b1-3)Gal(b1-4)GlcNAc(b1-3)Gal(b1-4)GlcNAc(b1-2)[Gal(b1-4)GlcNAc(b1-3)Gal(b1-4)GlcNAc(b1-3)Gal(b1-4)GlcNAc(b1-6)]Man(a1-6)[Gal(b1-4)GlcNAc(b1-3)Gal(b1-4)GlcNAc(b1-3)Gal(b1-4)GlcNAc(b1-2)Man(a1-3)]Man(b1-4)GlcNAc(b1-4)[Fuc(a1-6)]GlcNAc
# In short: as §1
# [8] = biological target: Gal(b1-4)GlcNAc(b1-3)Gal(b1-4)GlcNAc(b1-3)Gal(b1-4)GlcNAc(b1-3)Gal(b1-4)GlcNAc(b1-2)Man(a1-3)[Gal(b1-4)GlcNAc(b1-3)Gal(b1-4)GlcNAc(b1-3)Gal(b1-4)GlcNAc(b1-3)Gal(b1-4)GlcNAc(b1-2)Man(a1-6)]Man(b1-4)GlcNAc(b1-4)GlcNAc
# In short: as §1
# [9] = biological target: Gal(b1-4)GlcNAc(b1-3)Gal(b1-4)GlcNAc(b1-3)Gal(b1-4)GlcNAc(b1-3)Gal(b1-4)GlcNAc(b1-2)Man(a1-3)[Gal(b1-4)GlcNAc(b1-3)Gal(b1-4)GlcNAc(b1-3)Gal(b1-4)GlcNAc(b1-3)Gal(b1-4)GlcNAc(b1-2)Man(a1-6)]Man(b1-4)GlcNAc(b1-4)[Fuc(a1-6)]GlcNAc
# In short: as §1
# [10] = biological target: Gal(b1-4)GlcNAc(b1-3)Gal(b1-4)GlcNAc(b1-3)Gal(b1-4)GlcNAc(b1-3)Gal(b1-4)GlcNAc(b1-2)[Gal(b1-4)GlcNAc(b1-3)Gal(b1-4)GlcNAc(b1-3)Gal(b1-4)GlcNAc(b1-3)Gal(b1-4)GlcNAc(b1-6)]Man(a1-6)[Gal(b1-4)GlcNAc(b1-3)Gal(b1-4)GlcNAc(b1-3)Gal(b1-4)GlcNAc(b1-3)Gal(b1-4)GlcNAc(b1-2)Man(a1-3)]Man(b1-4)GlcNAc(b1-4)[Fuc(a1-6)]GlcNAc
# In short: as §1
# [11] = biological target: Gal(b1-4)GlcNAc(b1-3)Gal(b1-4)GlcNAc(b1-3)Gal(b1-4)GlcNAc(b1-3)Gal(b1-4)GlcNAc(b1-3)Gal(b1-4)GlcNAc(b1-2)Man(a1-3)[Gal(b1-4)GlcNAc(b1-3)Gal(b1-4)GlcNAc(b1-3)Gal(b1-4)GlcNAc(b1-3)Gal(b1-4)GlcNAc(b1-3)Gal(b1-4)GlcNAc(b1-2)Man(a1-6)]Man(b1-4)GlcNAc(b1-4)GlcNAc
# In short: as §1
# [12] = biological target: Gal(b1-4)GlcNAc(b1-3)Gal(b1-4)GlcNAc(b1-3)Gal(b1-4)GlcNAc(b1-3)Gal(b1-4)GlcNAc(b1-3)Gal(b1-4)GlcNAc(b1-2)Man(a1-3)[Gal(b1-4)GlcNAc(b1-3)Gal(b1-4)GlcNAc(b1-3)Gal(b1-4)GlcNAc(b1-3)Gal(b1-4)GlcNAc(b1-3)Gal(b1-4)GlcNAc(b1-2)Man(a1-6)]Man(b1-4)GlcNAc(b1-4)[Fuc(a1-6)]GlcNAc
# In short: as §1
# [13] = biological target: Gal(b1-4)GlcNAc(b1-3)Gal(b1-4)GlcNAc(b1-3)Gal(b1-4)GlcNAc(b1-3)Gal(b1-4)GlcNAc(b1-3)Gal(b1-4)GlcNAc(b1-2)[Gal(b1-4)GlcNAc(b1-3)Gal(b1-4)GlcNAc(b1-3)Gal(b1-4)GlcNAc(b1-3)Gal(b1-4)GlcNAc(b1-3)Gal(b1-4)GlcNAc(b1-6)]Man(a1-6)[Gal(b1-4)GlcNAc(b1-3)Gal(b1-4)GlcNAc(b1-3)Gal(b1-4)GlcNAc(b1-3)Gal(b1-4)GlcNAc(b1-3)Gal(b1-4)GlcNAc(b1-2)Man(a1-3)]Man(b1-4)GlcNAc(b1-4)[Fuc(a1-6)]GlcNAc
# In short: as §1
# [14] = biological target: Gal(b1-4)GlcNAc(b1-3)Gal(b1-4)GlcNAc(b1-3)Gal(b1-4)GlcNAc(b1-3)Gal(b1-4)GlcNAc(b1-3)Gal(b1-4)GlcNAc(b1-3)Gal(b1-4)GlcNAc(b1-2)Man(a1-3)[Gal(b1-4)GlcNAc(b1-3)Gal(b1-4)GlcNAc(b1-3)Gal(b1-4)GlcNAc(b1-3)Gal(b1-4)GlcNAc(b1-3)Gal(b1-4)GlcNAc(b1-3)Gal(b1-4)GlcNAc(b1-2)Man(a1-6)]Man(b1-4)GlcNAc(b1-4)GlcNAc
# In short: as §1
# [15] = biological target: Gal(b1-4)GlcNAc(b1-3)Gal(b1-4)GlcNAc(b1-3)GalNAc
# In short: as §1
# [16] = biological target: Gal(b1-4)GlcNAc(b1-3)Gal(b1-4)GlcNAc(b1-3)[Gal(b1-4)GlcNAc(b1-3)Gal(b1-4)GlcNAc(b1-6)]GalNAc
# In short: as §1
# [17] = biological target: Gal(b1-4)GlcNAc(b1-3)Gal(b1-4)GlcNAc(b1-6)[Gal(b1-3)]GalNAc
# In short: as §1
# [18] = biological target: Gal(b1-4)GlcNAc(b1-3)Gal(b1-4)[Fuc(a1-3)]GlcNAc(b1-3)Gal(b1-4)[Fuc(a1-3)]GlcNAc
# In short: as §1
# [19] = biological target: Gal(b1-4)GlcNAc(b1-3)GalNAc
# In short: as §1
# [20] = biological target: Gal(b1-4)GlcNAc(b1-3)[Fuc(a1-3)GlcNAc(b1-6)]Gal(b1-4)Glc
# In short: as §1
# [21] = biological target: Gal(b1-4)GlcNAc(b1-3)[Gal(b1-4)GlcNAc(b1-6)]Gal(b1-4)GlcNAc
# In short: as §1
# [22] = biological target: Gal(b1-4)GlcNAc(b1-3)[GlcNAc(b1-6)]Gal(b1-4)GlcNAc
# In short: as §1
# [23] = biological target: Gal(b1-4)GlcNAc(b1-6)Gal(b1-4)GlcNAc
# In short: as §1
# [24] = biological target: Gal(b1-4)GlcNAc(b1-6)GalNAc
# In short: as §1
# [25] = biological target: Gal(b1-4)GlcNAc(b1-6)[Gal(b1-3)]GalNAc
# In short: as §1
# [26] = biological target: Gal(b1-4)GlcNAc(b1-6)[Gal(b1-4)GlcNAc(b1-3)]GalNAc
# In short: as §1
# Gal(b1-4)GlcNAc6P = biological target: Gal(b1-4)GlcNAc6P
# In short: as §1
# Gal(b1-6)Gal = biological target: Gal(b1-6)Gal
# In short: as §1
# Gal3S(b1-3)GalNAc = biological target: Gal3S(b1-3)GalNAc
# In short: as §1
# Gal3S(b1-3)GlcNAc = biological target: Gal3S(b1-3)GlcNAc
# In short: as §1
# [27] = biological target: Gal3S(b1-3)[Fuc(a1-4)]GlcNAc
# In short: as §1
# Gal3S(b1-4)Glc = biological target: Gal3S(b1-4)Glc
# In short: as §1
# Gal3S(b1-4)Glc6S = biological target: Gal3S(b1-4)Glc6S
# In short: as §1
# Gal3S(b1-4)GlcNAc = biological target: Gal3S(b1-4)GlcNAc
# In short: as §1
# [28] = biological target: Gal3S(b1-4)[Fuc(a1-3)]Glc6S
# In short: as §1
# [29] = biological target: Gal3S(b1-4)[Fuc(a1-3)]GlcNAc
# In short: as §1
# [30] = biological target: Gal3S(b1-4)[Fuc(a1-3)]GlcNAc6S
# In short: as §1
binder,measurement,setting,value
"Epa3 (Candida glabrata), Q6VBI8_CANGB (protein) MGSSHHHHHHSSGLVPRGSHMNDLGFSLFEKRELSSQNPFGYPIGCSPQDVAIIPGLTMELYSYPIVSGTPPNCYDASYVDPEYPRTGYLKRKMVGKSTGVTGNLNYKYSVEKACMVKYGNLPAGYNYNEPLTVSNFTMILYGYFKAQTTGLHTFFVNADDLLYINFGAGNAFDCCKREDSKTKLGEYVAYDIWHVDSSKNKVSLFLEKDLYYPIRMFFNNIGKDSSLDLSFSVNGATDQISDFSGYLYSVPDQPDTCPAHIGYDTTCR",glycan array binding signal (z-score),[1],0.089
same,glycan array binding signal (z-score),[2],0.339
same,glycan array binding signal (z-score),[3],0.064
same,glycan array binding signal (z-score),[4],-0.403
same,glycan array binding signal (z-score),[5],0.864
same,glycan array binding signal (z-score),[6],0.151
same,glycan array binding signal (z-score),[7],0.09
same,glycan array binding signal (z-score),[8],0.035
same,glycan array binding signal (z-score),[9],0.059
same,glycan array binding signal (z-score),[10],-0.004
same,glycan array binding signal (z-score),[11],-0.104
same,glycan array binding signal (z-score),[12],-0.108
same,glycan array binding signal (z-score),[13],-0.003
same,glycan array binding signal (z-score),[14],-0.131
same,glycan array binding signal (z-score),[15],0.036
same,glycan array binding signal (z-score),[16],0.093
same,glycan array binding signal (z-score),[17],0.768
same,glycan array binding signal (z-score),[18],-0.168
same,glycan array binding signal (z-score),[19],-0.379
same,glycan array binding signal (z-score),[20],-0.265
same,glycan array binding signal (z-score),[21],-0.322
same,glycan array binding signal (z-score),[22],-0.322
same,glycan array binding signal (z-score),[23],-0.194
same,glycan array binding signal (z-score),[24],-0.001
same,glycan array binding signal (z-score),[25],1.35
same,glycan array binding signal (z-score),[26],-0.246
same,glycan array binding signal (z-score),Gal(b1-4)GlcNAc6P,-0.201
same,glycan array binding signal (z-score),Gal(b1-6)Gal,-0.174
same,glycan array binding signal (z-score),Gal3S(b1-3)GalNAc,-0.228
same,glycan array binding signal (z-score),Gal3S(b1-3)GlcNAc,-0.084
same,glycan array binding signal (z-score),[27],-0.197
same,glycan array binding signal (z-score),Gal3S(b1-4)Glc,-0.114
same,glycan array binding signal (z-score),Gal3S(b1-4)Glc6S,-0.161
same,glycan array binding signal (z-score),Gal3S(b1-4)GlcNAc,-0.135
same,glycan array binding signal (z-score),[28],0.312
same,glycan array binding signal (z-score),[29],-0.159
same,glycan array binding signal (z-score),[30],-0.189
